Measurements as given in PubChem BioAssay AID504937 (National Center for Advancing Translational Sciences (NCATS), 2011).
The whole screen tested about 340,000 compounds, of which about 20 (0.006%) were called active. Inconclusive results, whose numbers are uncertain, are shown with a selection of clear calls. The call rests on the fitted dose curve; in most records, active means well fitted inhibition curve with a large enough effect; inconclusive means small, poorly fitted or top-dose-only effect; inactive means no such curve, though single readings can be large or run the other way. A potency beside an inconclusive call is a rough fit, not a confirmed value.

Molecular target: Sphingomyelin phosphodiesterase (Homo sapiens) (UniProt P17405)
Sequence of UniProt P17405 (P17405 whole entry, looked up): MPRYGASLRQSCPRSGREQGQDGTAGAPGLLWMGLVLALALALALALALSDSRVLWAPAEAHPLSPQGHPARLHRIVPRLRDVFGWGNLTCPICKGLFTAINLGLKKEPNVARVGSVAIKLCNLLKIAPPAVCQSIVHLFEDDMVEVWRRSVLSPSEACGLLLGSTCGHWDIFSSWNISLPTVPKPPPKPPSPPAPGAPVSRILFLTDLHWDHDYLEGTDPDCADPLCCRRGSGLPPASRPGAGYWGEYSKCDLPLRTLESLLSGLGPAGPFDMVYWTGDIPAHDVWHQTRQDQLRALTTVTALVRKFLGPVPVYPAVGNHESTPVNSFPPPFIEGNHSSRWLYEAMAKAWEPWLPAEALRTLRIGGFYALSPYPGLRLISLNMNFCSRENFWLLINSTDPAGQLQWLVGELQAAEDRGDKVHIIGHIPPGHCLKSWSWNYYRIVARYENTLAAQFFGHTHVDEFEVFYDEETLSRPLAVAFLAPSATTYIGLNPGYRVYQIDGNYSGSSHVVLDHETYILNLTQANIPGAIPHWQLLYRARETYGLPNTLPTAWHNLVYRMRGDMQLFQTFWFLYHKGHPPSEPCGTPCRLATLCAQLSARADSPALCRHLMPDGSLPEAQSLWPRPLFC
Assay: Inhibitors of Secretory Acid Sphingomyelinase (S-ASM): qHTS
Conditions: placental ASM, HMU-PC fluorogenic substrate (series up to 57.5 µM), 60 min
Summary of the method: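 Human placenta-derived ASM preincubated with compound 10 min at room temperature, then reacted with 9 uM (final) fluorogenic HMU-PC substrate for 60 min at 37 C. Stop solution raises pH to 10; fluorescence read at Ex 386/Em 447 nm.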
Potency means the concentration at half of the fitted maximal effect; tags describe the fitted curve by direction and shape.

SMILES | Potency
Cc1ccc(NC(=O)COc2cccc(/C=C3\SC(=S)N(CCC(=O)O)C3=O)c2)cc1Cl | inconclusive: 70.8 µM [inhibitor, partial curve, poor fit]
O=S(=O)(NC1CC1)c1ccc(S(=O)(=O)N2CCCC3(CCCCC3)C2)cc1 | inactive
CC1CCCCN1C(=O)COC(=O)CSc1ccc(C(N)=O)cc1[N+](=O)[O-] (stereo unspecified) | inactive
O=C(OCc1ccc(O)cc1)c1c(-c2ccsc2)oc2ccc(N3CCOCC3)cc12 | inconclusive: 251 µM [inhibitor, partial curve, poor fit]
COc1ccc(/C=N\NC(=O)c2ccccc2Cl)cc1COc1c(F)c(F)c(F)c(F)c1F | inactive
Cc1nc(SCc2ccccc2)[nH]c(=O)c1CC(=O)OCC(C)C | inactive
Cc1cc(C)n(-c2nc(N(c3ccccc3)c3ccccc3)nc(-n3nc(C)cc3C)n2)n1 | inactive
Nc1c(Cl)cnn(-c2ccccc2)c1=O | inactive
COc1ccc(/C=C(\NC(=O)c2ccco2)C(=O)NCc2ccco2)cc1 | inactive
COC(=O)c1ccc(C)c(NC(=S)NCc2ccc(Cl)cc2)c1 | inactive
Cc1ccc(NC(=O)Cn2nc(C(=O)O)c3ccccc3c2=O)cc1S(=O)(=O)N1CCCCCC1 | inconclusive: 100 µM [inhibitor, partial curve, poor fit]
Clc1cccc(Cl)c1/C=N\Nc1nccs1 | inconclusive: 112 µM [inhibitor, partial curve, poor fit]
CC1CN(C(=O)c2cccc(S(=O)(=O)N3CCOCC3)c2)CC(C)O1 (stereo unspecified) | inactive
C=CCc1cc(/C=C2/NC(=O)N(CC(=O)OC)C2=O)cc(OC)c1O | inactive
Cc1noc(C)c1S(=O)(=O)Nc1ccc(C(=O)Nc2ccc(OC(F)(F)F)cc2)cc1 | inconclusive: 79.4 µM [inhibitor, single point]
COc1cc2c(C(=O)N3CCN(C)CC3)c(C)oc2cc1Br | inactive
CC1(C)S[C@@H]2[C@H](NC(=O)[C@H](N)c3ccccc3)C(=O)N2[C@H]1C(=O)O | inconclusive: 70.8 µM [inhibitor, single point]
CCOC(=O)c1cccc(NC(=O)CS(=O)(=O)Cc2nc(-c3cccc(OC)c3)oc2C)c1 | inconclusive: 100 µM [inhibitor, partial curve, poor fit]
COc1ccc(/C=C/c2nc(N)nc(-c3ccccc3O)n2)cc1OC | inconclusive: 562 µM [inhibitor, partial curve, poor fit]
COc1ccccc1-c1cc(C(F)(F)F)nc(S(=O)(=O)CCCC(=O)Nc2cccnc2Cl)n1 | inactive
N#Cc1nc(-c2ccc(F)cc2)oc1NCCN1CCOCC1 | inactive
COc1ccccc1NC(=O)c1cc2cc(Br)ccc2cc1O | inconclusive: 50.1 µM [inhibitor, partial curve, poor fit]

SMILES | Potency
COc1cc(/C=N/N(C)c2ccccc2)cc(Cl)c1O | inconclusive: 79.4 µM [inhibitor, single point]
OC(CCc1cccc(Cl)c1)c1cccs1 (stereo unspecified) | inactive
CS(=O)(=O)N1CCc2cc(-c3csc(NC(=O)Cc4cccs4)n3)ccc21 | inactive
COc1cc(NC(=O)c2ccc(COc3ccccc3Br)o2)cc(OC)c1OC | inconclusive: 89.1 µM [inhibitor, single point]
CCSc1nnc(NC(=O)CSc2nnc(Cc3cccn3C)n2CCc2ccccc2)s1 | inconclusive: 1410 µM [inhibitor, partial curve, poor fit]
CCC(=NCc1ccc(Cl)c(Cl)c1)c1nc(-c2ccco2)oc1O | inconclusive: 89.1 µM [inhibitor, single point]
CCCCOc1ccc(C2=NNC(=O)CC2)cc1 | inactive
CC(=O)/C=C(\C)N=Nc1c(O)[nH]c2ccccc12 | inconclusive: 100 µM [inhibitor, partial curve, poor fit]
CCc1cc(-c2[nH]ncc2-c2ccc3c(c2)OCO3)c(O)cc1O | inconclusive: 355 µM [inhibitor, partial curve, poor fit]
COc1ccccc1NS(=O)(=O)c1cccc(NC(=O)c2[nH]c(C)c(C(C)=O)c2C)c1 | inconclusive: 112 µM [inhibitor, partial curve, poor fit]
COc1cc(-c2noc(C)c2C#Cc2ccc(N)cc2)cc(OC)c1OC | inconclusive: 126 µM [inhibitor, partial curve, poor fit]
O=C(/C=C/c1ccccc1)N1CCN(c2ccc([N+](=O)[O-])c(N3CCOCC3)c2)CC1 | inconclusive: 112 µM [inhibitor, partial curve, poor fit]
O=C(Cc1ccc(S(=O)(=O)N2CCOCC2)s1)Nc1cc(C(F)(F)F)cc(C(F)(F)F)c1 | inconclusive: 708 µM [inhibitor, partial curve, poor fit]
C[C@@H]1CN([C@@H](C)CO)C(=O)Cc2cc(NC(=O)Nc3ccc(F)cc3)ccc2O[C@@H]1CN(C)Cc1ccc(Cl)c(Cl)c1 | inconclusive: 100 µM [inhibitor, partial curve, poor fit]
COc1cccc(/C=C2/SC(=S)N(CC(=O)NC3C=CS(=O)(=O)C3)C2=O)c1 (stereo unspecified) | inconclusive: 501 µM [inhibitor, partial curve, poor fit]
CC1(C)OC(=O)N(c2ccccc2)C12C=Cc1cc(Br)ccc1O2 (stereo unspecified) | inconclusive: 79.4 µM [inhibitor, single point]
CCOC(=O)c1c(CSc2ccccc2)n(C)c2cc(Br)c(OCC(O)CNC(CO)(CO)CO)cc12 (stereo unspecified) | inconclusive: 100 µM [inhibitor, partial curve, poor fit]
COc1ccc(C(=O)NN2CC(O)=C(c3nc4ccccc4n3C)C2=N)cc1OC | inactive
O=C(CN1CCN(S(=O)(=O)c2ccc(F)cc2)CC1)Nc1ccc2c(c1)OCCO2 | inactive
Cc1ccc2cc(C(c3nnnn3C3CCCC3)N3CCN(c4ccc(F)cc4)CC3)c(=O)[nH]c2c1 (stereo unspecified) | inconclusive: 501 µM [inhibitor, partial curve, poor fit]
COC(=O)c1c(NC(=O)COc2ccc(Cl)cc2Cl)sc2c1CC(C)(C)NC2(C)C | inconclusive: 79.4 µM [inhibitor, partial curve, poor fit]
C[C@]12c3[nH]c4cc(-c5ccco5)ccc4c3CCN1C(=O)[C@@H](CC(=O)NCc1ccco1)C[C@@H]2C(=O)N1CCCCC1 | inconclusive: 112 µM [inhibitor, partial curve, poor fit]

SMILES | Potency
CCCCOC(=O)CSc1nc2c(c(=O)[nH]c(=O)n2C)n1C/C=C(\C)Cl | inactive
COc1cc(/C=C2/SC(=S)N(Cc3ccccc3)C2=O)cc(OC)c1O | inconclusive: 251 µM [inhibitor, partial curve, poor fit]
O=C(NN1C(=O)/C(=C/c2ccc(O)cc2)SC1=S)c1cccc(O)c1 | inconclusive: 70.8 µM [inhibitor, partial curve, poor fit]
Cc1ccc(S(=O)(=O)N/N=C/c2cccc3c2OCCO3)cc1 | inactive
Cc1c(C(=O)N2CCN(S(=O)(=O)c3ccccc3F)CC2)oc2c(Cl)cccc12 | inactive
CNC(=S)N1CCN(c2nc(-c3ccc(Cl)cc3)cs2)CC1 | inconclusive: 112 µM [inhibitor, partial curve]
CC1CCC(NC(=O)C2(C)CCC(=O)N2Cc2cccnc2)CC1 (stereo unspecified) | inactive
O=C(/C=C/c1ccccc1)c1ccc2ccccc2c1 | inactive
CCOc1ccc(C(=O)CCC(=O)Nc2ccc(C)c(S(=O)(=O)N3CCCCC3)c2)cc1 | inconclusive: 112 µM [inhibitor, partial curve, poor fit]
Cc1cccc(-c2nnc(SCC(=O)c3ccc(O)cc3O)n2C)c1 | inconclusive: 447 µM [inhibitor, partial curve, poor fit]
COc1ccc(C2/C=C\CC(NC(=O)OCC3c4ccccc4-c4ccccc43)CC(=O)N2Cc2ccccc2F)cc1 (stereo unspecified) | inconclusive: 112 µM [inhibitor, partial curve, poor fit]
COc1ccc2[nH]c(=O)c(CNc3ccccc3)cc2c1 | inactive
Cc1ccc(S(=O)(=O)N2CCN(C(=O)CCC(=O)Nc3ccc(Br)c(C)c3)CC2)cc1 | inactive
NC(N)=N/N=C/c1ccc(OCc2ccccc2Cl)cc1 | inconclusive: 112 µM [inhibitor, partial curve, poor fit]
O=C(CCCN1C(=O)/C(=C\c2cccc(Br)c2)SC1=S)Nc1cccnc1 | inactive
CC1=NN(c2ccccc2)C(=O)/C1=C/C=C/c1ccc(N(C)C)cc1 | inconclusive: 100 µM [inhibitor, single point]
O=C(N/N=C/C(Br)=C/c1ccccc1)c1ccncc1 | inactive
CC1=Nc2ccccc2/C1=C\c1nc(-c2ccccc2)oc1O | inconclusive: 126 µM [inhibitor, partial curve, poor fit]
CNc1nc(N/N=C/c2ccc([N+](=O)[O-])cc2)nc(Nc2ccccc2)n1 | inconclusive: 100 µM [inhibitor, partial curve, poor fit]
CCOc1cc(/C=C2/C(=N)N3C(=NC2=O)SN=C3S(C)(=O)=O)ccc1OC(=O)c1ccco1 | inconclusive: 15.8 µM [inhibitor, partial curve, poor fit]
COc1cccc(OCCn2cc(C(=O)c3ccco3)c3ccccc32)c1 | inconclusive: 3980 µM [inhibitor, partial curve, poor fit]
CCc1ccc(-c2cc(C)no2)cc1S(=O)(=O)NCCc1ccccc1 | inconclusive: 251 µM [inhibitor, partial curve, poor fit]
